# Hit rate of the full screen: of about 310,000 compounds, about 14,000 (4.5%) showed an effect of 50% or more. The effect is printed as a negative number. The list shows a part of the results.
# Target: human ether-à-go-go-related gene (hERG) potassium channel (human, UniProt Q12809)
# Test: primary screen, population patch clamp on CHO cells stably expressing hERG
# 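Note: peak tail current of the secondary pulse compared with the same well before compound.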
# Chain of human ether-à-go-go-related gene (hERG) potassium channel (Q12809 whole entry, looked up): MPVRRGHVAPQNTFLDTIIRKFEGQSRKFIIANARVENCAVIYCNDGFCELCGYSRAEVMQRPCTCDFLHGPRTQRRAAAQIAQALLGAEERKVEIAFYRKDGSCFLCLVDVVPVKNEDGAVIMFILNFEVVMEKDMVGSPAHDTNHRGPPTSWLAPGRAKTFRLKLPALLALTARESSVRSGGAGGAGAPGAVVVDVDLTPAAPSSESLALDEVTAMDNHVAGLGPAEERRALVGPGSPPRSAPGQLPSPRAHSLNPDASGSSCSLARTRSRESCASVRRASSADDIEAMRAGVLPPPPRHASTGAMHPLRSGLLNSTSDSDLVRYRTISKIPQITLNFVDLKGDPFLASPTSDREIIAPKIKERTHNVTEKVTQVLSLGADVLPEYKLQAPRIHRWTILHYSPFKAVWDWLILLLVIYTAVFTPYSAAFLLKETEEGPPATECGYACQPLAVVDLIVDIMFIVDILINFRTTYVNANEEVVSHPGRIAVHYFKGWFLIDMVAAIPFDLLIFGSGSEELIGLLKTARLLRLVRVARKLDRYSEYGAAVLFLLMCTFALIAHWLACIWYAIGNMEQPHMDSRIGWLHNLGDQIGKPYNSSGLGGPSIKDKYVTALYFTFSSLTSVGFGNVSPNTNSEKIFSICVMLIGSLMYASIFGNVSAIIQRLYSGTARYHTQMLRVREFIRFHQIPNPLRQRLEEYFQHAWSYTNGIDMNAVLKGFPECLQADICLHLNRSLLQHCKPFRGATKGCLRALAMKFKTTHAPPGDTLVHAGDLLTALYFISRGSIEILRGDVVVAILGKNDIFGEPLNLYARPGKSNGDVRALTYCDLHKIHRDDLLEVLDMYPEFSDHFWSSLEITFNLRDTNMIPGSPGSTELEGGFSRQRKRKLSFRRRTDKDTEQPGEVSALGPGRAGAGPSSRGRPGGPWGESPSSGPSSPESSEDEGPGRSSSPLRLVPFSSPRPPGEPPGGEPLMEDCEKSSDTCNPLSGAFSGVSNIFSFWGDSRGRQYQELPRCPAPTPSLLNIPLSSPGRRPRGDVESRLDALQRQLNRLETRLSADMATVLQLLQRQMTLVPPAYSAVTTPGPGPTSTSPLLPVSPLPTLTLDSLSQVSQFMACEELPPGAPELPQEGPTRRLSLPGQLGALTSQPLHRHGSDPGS
row,SMILES,"hERG current change (%, negative = inhibition) at 10uM"
1,COc1cc(OC)cc(C(=O)NNC(=O)c2ccc(-n3cncn3)c([N+](=O)[O-])c2)c1,5.46%
2,O=C(Cn1cc(C(F)(F)F)cc(Cl)c1=O)NCc1ccc(Cl)cc1,24.2%
3,N#Cc1nc(COc2ccc(Cl)cc2Cl)oc1N1CCOCC1,-14.1%
4,c1ccc(C2Nc3ccccc3-c3nc4ccccc4n32)cc1 (centres unmarked),-18.1%
5,CCCCC1=CC2=C(c3ccco3)C(=O)C(C)(OC(=O)c3ccc(OC)cc3)C(=O)C2=CN1CCOC (centres unmarked),-8.1%
6,S=c1nc(-c2ccccc2)n(CCCn2ccnc2)c2c1CCCC2,7.61%
7,COc1cccc(OC)c1C(=O)Nc1ccc(C(=O)c2ccncc2)cc1,-17.9%
8,Cn1c(CCc2ccccc2)nnc1SCC(=O)N1CCCC1,5.31%
9,O=C(Cc1ccc(F)cc1)NC1CCS(=O)(=O)C1 (centres unmarked),9.36%
10,CCOc1cc(NC(=O)c2ccccn2)c(OCC)cc1NC(=O)c1ccc(C)cc1,-13.7%
11,Cc1ccc(C(=O)NCCCNC(=O)COc2ccc(Cl)cc2)cn1,-0.37%
12,FC(F)(F)c1nnc2ccc(N3CCCCCC3)nn12,-14.3%
13,Cc1cccc(Nc2nc3c(c(=O)n(C)c(=O)n3C)n2CC(O)CO)c1 (centres unmarked),-0.943%
14,Cc1ccc(N2CCN(S(=O)(=O)N3CCCCC3)CC2)cc1Cl,8.45%
15,Cc1ccnc(SCCn2c(N3CC(C)CC(C)C3)nc3c2c(=O)n(C)c(=O)n3C)n1 (centres unmarked),-4.49%
16,O=C(NC1CCN(c2ncccn2)CC1)c1cccc(F)c1,16.1%
17,Cc1ccccc1NC(=O)Cn1c(CCC(=O)O)ccc1-c1cccs1,15.4%
18,COc1ccc2c(Cl)c(-c3nnco3)sc2c1,5.13%
19,Cc1cccc(NC(=O)c2cc3c(s2)-c2c(C)cccc2OC3)n1,29.2%

row,SMILES,"hERG current change (%, negative = inhibition) at 10uM"
1,O=C(COC(=O)c1cccc(S(=O)(=O)N2CCCCCC2)c1)Nc1ccccc1C(F)(F)F,26.1%
2,Cl.OCCN1CCN(CC#CCn2c3ccccc3c3ccccc32)CC1,-28%
3,Cn1nnc2cc(C(=O)Nc3ccccc3)ccc21,8.48%
4,CCCN(CCC)C(=O)Cc1c(-c2ccc(Cl)cc2)nc2c(Cl)cc(Cl)cn12,-0.882%
5,Cc1ccc(C)c(N(CC(=O)N2CCc3ccccc3C2)S(C)(=O)=O)c1,-29.4%
6,COc1ccccc1C1CC(c2ccc(NS(C)(=O)=O)cc2)=NN1S(=O)(=O)c1ccccc1 (centres unmarked),-69.6%
7,CCCCCCOC(=O)CCn1[nH]c(=O)c2ccccc2c1=O,16.8%
8,COc1ccc(NC(=O)[C@@H]2CCCN2C(=O)c2cccs2)cc1S(=O)(=O)N1CCCCC1,-6.06%
9,COC(=O)c1cn(NC(=O)c2ccc([N+](=O)[O-])c(C)c2)c(=O)c2ccccc12,-6.3%
10,CNC(=O)C(=O)Nc1cc2c3c(c1)CCC(=O)N3CCC2,9.67%
11,CCOCCCNC(=O)NC(=O)CN1CCN(S(=O)(=O)c2ccc3c(c2)OCCO3)CC1,18.7%
12,Cc1nc2sccn2c1P(c1c(C)nc2sccn12)c1c(C)nc2sccn12,-5.06%
13,COc1ccccc1/C=C/CN1CC(C)OC(C)C1 (centres unmarked),-9.11%
14,O=C(NC1=NCCS1)c1cccc(F)c1,8.42%
15,NC(=O)CCN1CCN(Cc2nc(C(c3ccccc3)c3ccccc3)no2)CC1,-25.6%
16,COc1ccc(/C=N/NC(=O)Cn2c(Cc3ccc(OC)c(OC)c3)nc3ccccc32)cc1OC,7.62%
17,COC(=O)C1=CN(C2CC2)C=C(C(=O)OC)C1c1ccccc1OC,-12.2%
18,Cc1cccc(/C=N/NC(=O)c2ccc(F)cc2)n1,11.5%
19,CC(NC(=O)c1cc(S(=O)(=O)N2CCOCC2)ccc1F)c1ccc(-n2ccnc2)cc1 (centres unmarked),-72.2%

row,SMILES,"hERG current change (%, negative = inhibition) at 10uM"
1,CCOc1ccc(/C=C2\N=C(c3cccs3)OC2=O)cc1OC,12.8%
2,COc1ccc(Nc2oc(COc3ccc(C)cc3)nc2C#N)cc1,-11.4%
3,O=C(CCc1nnc(CCCCc2ccccc2)o1)NCCC1CCCCO1 (centres unmarked),7.94%
4,Cc1ccc(N(C)S(=O)(=O)c2c[nH]c3ccc([N+](=O)[O-])cc23)cc1,24%
5,O=C(c1ccc(CS(=O)Cc2ccc(Cl)cc2)o1)N1CCN(c2ccc(F)cc2)CC1 (centres unmarked),-62.1%
6,CCCn1c(SCc2nc3ccccc3s2)n[nH]c1=O,-44.4%
7,S=C1Cc2ccccc2C(c2ccc(Cl)cc2)N1 (centres unmarked),8.59%
8,CCOc1cc(/C=C(\C#N)C(N)=O)ccc1OS(=O)(=O)c1ccccc1,-5%
9,COc1ccccc1N1CCN(C(=O)C2CCCO2)CC1 (centres unmarked),11.1%
10,COc1ccc(CC(=O)Nc2ccc(N3CCOCC3)cc2)cc1S(=O)(=O)N1CCOCC1,0.936%
11,CCC(C)CCN1C(Nc2ccccc2)=NC[C@@H]1CC(C)C (some centres unmarked),-41.1%
12,CCN1C(=O)[C@@H]2[C@H](C1=O)[C@@H]1C(=O)Nc3ccccc3C(=O)N1[C@@H]2c1cccc(C)c1,-27.4%
13,Cc1nn(C)cc1C(C)Nc1nc2nonc2nc1N1CCCCC1 (centres unmarked),0.196%
14,COc1ccc(NC(=O)c2cccc(NC(=O)c3ccccc3)c2)cc1,2%
15,O=C(COC(=O)/C=C/c1cccc(Br)c1)NCCc1ccccc1,5.72%
16,CCN(CC)CCCN(Cc1cc2cc3c(cc2[nH]c1=O)OCCO3)C(=O)Nc1ccccc1,-41.7%
17,Cn1c(=O)c2cc3ccccc3nc2n(C)c1=O,14.4%
18,CC(C)c1cc(Nc2cccc(O)c2)cc(C(C)C)c1O,4.02%

# Source: article PMC4336329 (PLoS ONE, 2015)
